Results taken from patent US12551573B2, “Compositions and methods for the targeting of PCSK9” (Scribe Therapeutics Inc., priority 2022, dated 2026).
Where a chain is given by its changes, count along the chain named.

B1: DOMAIN_3337 (protein, listed as Hylobates sp.)
chain: MPLKARYQEMVTFEDVAVHFTKTEWTGLSPAQRALYRSVMLENFGNLTALGYPVPKPALISLLEGGDMDWGLEAQDDPPAE
B2: DOMAIN_3332 (protein, listed as Hylobates sp.)
chain: IHLTAWPQKSVTFEDVAVYFTQAEWDGLSPAQRTLYRDVMLENYGNVASLGFPLLKPAVISQLEGGGDLGGPSPLAAGTGL
B3: DOMAIN_3137 (protein, listed as Hylobates sp.)
chain: MNMEGLVMFQDLSIDFSQEEWECLDAAQKDLYRDVMMENYSSLVSLGLSIPKPDVISLLEQGKEPWMVSRDMLGGWCPDSE
B4: DOMAIN_2806 (protein, listed as Hylobates sp.)
chain: MAAAALVNTPQGHVTFEDIAVYFSQEEWGLLDEAQRCLYHDVMLENFSLMASVGCLHGIEAEEAPSEQTVSAQGASQARTP
B5: DOMAIN_3344 (protein, listed as Hylobates sp.)
chain: PAQGPGEARPSRKRGRRPRALKFVDVAVYFSPEEWGCLRPAQRALYRDVMRETYGHLGALGCAGPKPALISWLERNTDDWE
B6: DOMAIN_3092 (protein, listed as Hylobates sp.)
chain: MIEYQIPVSFKDVVVGFTQEEWHQLSPAQRALYRDVMLETYSNLVSVGYEGTKPDVILRLEQEEAPWIGEAACLGCHCWED
B7: DOMAIN_3094 (protein, listed as Hylobates sp.)
chain: B6 chain with E80G, D81I
B8: DOMAIN_3096 (protein, listed as Hylobates sp.)
chain: B6 chain with E80G, D81K
B9: DOMAIN_2867 (protein, listed as Hylobates sp.)
chain: MALRSVMFSDVSIDFSPEEWEYLDLEQKDLYRDVMLENYSNLVSLGCFISKPDVISLLEQGKEPWKVVRKGRRQYPDLETR
B10: DOMAIN_2908 (protein, listed as Hylobates sp.)
chain: MGPLQFRDVAIEFSLEEWHCLDTAQRNLYRNVMLENYSNLVFLGIVVSKPDLITRLEQGKKPLTMKRHEMVANPSGPGVFV
B11: DOMAIN_2851 (protein, listed as Hylobates sp.)
chain: MSLGSELFRDVAIVFSQEEWQWLAPAQRDLYRDVMLETYSNLVSLGLAISKPDVISFLEQGKEPWMVERVVSRGLCPVLES
B12: DOMAIN_3087 (protein, listed as Hylobates sp.)
chain: MAHALVTFRDVAIDFSQKEWECLDTTQRKLYRDVMLENYNNLVSLGYSGSKPDVITLLEQGKEPCMAARDVTGRQYPGLLS
B13: DOMAIN_2904 (protein, listed as Hylobates sp.)
chain: MSGPPGSLEMEPLQFRDVAVEFSLEEWHCLDTAQQNLYRDVMLENYRHLVFLGIVVSKPDLITCLEQGKKPLTMKRHEMIA
B14: DOMAIN_2962 (protein, listed as Hylobates sp.)
chain: MDSVAFEDVAINFTCEEWALLGPSQKSLYRDVMQETIRNLDCIGMTWQTHDIEEDQYKDLRRNLRCHMVERSCEIKDNSQC
B15: DOMAIN_3373 (protein, listed as Hylobates sp.)
chain: ADITLMSQAQDSRSILFQESVTFEDVAVNFTNREWQCLTYAQRHLYKDVMLENYRNMASLGFPFPKPPLISHLEREVDPCV
B16: DOMAIN_3585 (protein, listed as Macaca mulatta)
chain: MAAVSPTTRCQESVTFEDVAVVFTDEEWSHLVPIQRDLYKEVMLENYNSIVSLGLPVPQPDVIFQLKRGDKPWVVDLHGSE
B17: DOMAIN_3575 (protein, listed as Macaca mulatta)
chain: MSQGSVTFRDVAIDFSQEEWKWLQPAQRDLYRCVMLENYGHLVSLGLSISKPDVVSLLEQGKEPWLGKRNVNRDLFSVSES
B18: DOMAIN_3123 (protein, listed as Hylobates sp.)
chain: LAPEDHGSSYEGSVSFRDVAIDFSREEWRHLDLSQRNLYRDVMLETYSHLLSVGYQVPEAEVVMLEQGKEPWALQGERPRH
B19: DOMAIN_3661 (protein, listed as Macaca mulatta)
chain: MDSVAFEDVAVTFTQEEWALLDPSQKTLYRDVMQETFRNLASVGKKWKAQNMYVEYENLKRNLRTFVGERLFESKEGHQHG
B20: DOMAIN_3557 (protein, listed as Macaca mulatta)
chain: MAHMAFRDVAVDFTQDEWRLLSPAQRTLYREVMLENYSNLVSLGISFSKPELITQLEQGKETWREEKNCSPATCPADPEPE
B21: DOMAIN_2997 (protein, listed as Hylobates sp.)
chain: MESLTLEDVAVDFTWEEWQFLSPAQKDLYRDVMLENYSNLVAVGYQARKPDALSKLERGEEPCTTEDEIYARICSDSGGAS
B22: DOMAIN_2888 (protein, listed as Hylobates sp.)
chain: MGLLTFRDVAIEFSLEEWQCLDTAQKNLYRNVMLENYRNLAFLGIAVSKPDLIICLEKEKEPWNMKRHEMVDEPPGLAVSN
B23: DOMAIN_2896 (protein, listed as Hylobates sp.)
chain: B22 chain with K26Q, I54T, K58Q, E59G, L77V, A78C, V79P, S80H, N81F
B24: DOMAIN_11029 (protein, listed as Mandrillus leucophaeus)
chain: WPESVTFEDVAVYFTQNQWASLDPAQRALYGEVMLENYANVASLVAFPFPKPALISHLERGEAPWGPDPWDTEIPRGISQG
B25: DOMAIN_3336 (protein, listed as Hylobates sp.)
chain: MVTFEDVAVHFTKTEWTGLSPAQRALYRSVMLENFGNLTALGYPVPKPALISLLEGGDMDWGLEAQDDPPAERTKNVCKVI
B26: DOMAIN_3300 (protein, listed as Hylobates sp.)
chain: TQPDEDLHLQVEETQLVKESVTFKDVAIDFTLEEWRLMDPTQRNLHKDVMLENYRNLVSLGLAVSKPDMISHLENGKGPWV
B27: DOMAIN_2943 (protein, listed as Hylobates sp.)
chain: MMFQDSVAFEDVAVTFTQEEWALLDPSQKNLYRDVMQETFKNLASIGKKWKAQNIYVEYKNLRRNLRIVGERLFESKEGHQ
B28: DOMAIN_17358 (protein)
chain: SQSPLTFGDVAVEFSGEEWAWLDSAQRSLHRSVMLENYRNLASLGLCLSKPEMISSLEQRKEPWAVKRKSTRGMHPDSQTL
modifications: source 1..81: note = Bos indicus x Bos taurus
B29: DOMAIN_2992 (protein, listed as Hylobates sp.)
chain: MIKSQESLTLEDVAVEFTWEEWQLLGPAQKDLYRDVMLENYSNLVSVGYQASKPDALFKLEQGEPWTVENDSHICPEIKKV
B30: DOMAIN_3586 (protein, listed as Macaca mulatta)
chain: TLLTFRDVAIEFSLEEWKCLDPAQQNLYRDVMLENYRNLFSIGLTVSKPGLITCLEQRKEPWNVKRQEAVDGHPAMSSHVT
B31: DOMAIN_3000 (protein, listed as Hylobates sp.)
chain: MINAQELLTLEDVTVEFTWEEWQLLDPFQKDLYRDVMLEIYSNLVSIGYQVSKPDALSKLERGEEPWTVEDERHSQICPEN
B32: DOMAIN_3602 (protein, listed as Macaca mulatta)
chain: MAPGLLTTREEALMAFRDVAVAFTQKEWKLLSSAQRTLYREVMLENYSHLVSLGIAFSKPKLIEQLEQGNEPWREENEHLL
B33: DOMAIN_2891 (protein, listed as Hylobates sp.)
chain: MEPLKFRDVAIEFSLEEWQCLDSIQQNLYRNVMLENYRNLVFLGIAASKPDLIICLEQEKEPWSRKRRRMVAELPVICSHF
B34: DOMAIN_2994 (protein, listed as Hylobates sp.)
chain: MMQAQESLTLEDVAVDFTWEEWQFLSPAQKDLYRDVMLENYSNLVAVGYQARKPDALSKLERGEEPCTTEDEIYARICSDS
B35: DOMAIN_10948 (protein, listed as Colobus angolensis)
chain: VQEPVTFKDVAVDFTQEEWGQLDLVQRTLYRDVMLETYGHLLSVGNQIAKPEVISLLEQGEEPWSVEQACPQHTCPEWMRN
B36: DOMAIN_3335 (protein, listed as Hylobates sp.)
chain: MAAMPLKARYQEMVTFEDVAVHFTKTEWTGLSPAQRALYRSVMLENFGNLTALGYPVPKPALISLLEGGDMDWGLEAQDDP
B37: DOMAIN_2808 (protein, listed as Hylobates sp.)
chain: MAAAALRDPAQQGYVTFEDVAVYFSQEEWRLLDEAQKLLYRNVMLENFSLLASLGLASSKTHEITQLESWEEPFMPAWEVV
B38: DOMAIN_2813 (protein, listed as Hylobates sp.)
chain: B37 chain with V80A
B39: DOMAIN_2786 (protein, listed as Hylobates sp.)
chain: MAAAAALRAHAQSSVTFEDVAVNFSMEEWSLLNEAQRCLYRDVMLETLTLISSLGCWHGGEDEAAPSKQSTCIYIYKEQGG

System: HBEGF locus
Type: cell-based, human
Settings: high-throughput screen of dXR repression of the HBEGF gene; change in abundance of each domain in the library before and after diphtheria toxin selection

Molecule	Log2 (fold change)
B1	2.9398
B2	2.8786
B3	2.8303
B4	3.1649
B5	3.2218
B6	3.1954
B7	3.7195
B8	3.3962
B9	3.0591
B10	2.6452
B11	3.3945
B12	2.7999
B13	2.8035
B14	2.1784
B15	3.0768
B16	2.4981
B17	3.7842
B18	3.1293
B19	2.4083
B20	2.4416

Molecule	Log2 (fold change)
B21	2.9911
B22	2.4267
B23	2.7253
B24	3.5748
B25	3.5946
B26	3.0127
B27	2.9574
B28	4.9878
B29	2.6341
B30	2.365
B31	2.9522
B32	2.0444
B33	2.7489
B34	3.1921
B35	3.2959
B36	4.0001
B37	2.6227
B38	2.9522
B39	2.5449
